From PubChem BioAssay AID1508624 (National Center for Advancing Translational Sciences (NCATS), 2021)
Among all 48,000 compounds or so, about 120 (0.25%) were called active. About 4% were inconclusive and are not listed. Calls come from the whole dose curve; as a rule, active = well fitted activation curve with a large enough effect; inconclusive = small, poorly fitted or top-dose-only effect, or another doubt; inactive = no such curve, though single readings can be large or run the other way. Some of the results follow.

Experiment: Primary qHTS for Identification of Small Molecule Activators of Huntingtin-Antisense Promoter Activity; note: nearly all actives have a fitted effect of over 55% in size
Conditions: HEK293 HTT-AS promoter firefly luciferase reporter (activity 0% = vehicle and -100% = no light), 24 h; series mostly up to 57.5 µM; activity change, positive = activation: at the top concentration
Procedure, shortened: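 Luminescence was read after Dual-Glo reagent and a 10 min room-temperature incubation. Values were normalized to vehicle (0% activity) and zero RLU (-100% activity). Reporter HEK293 cells had been exposed to compounds (up to 57.5 uM final) for 24 h.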

SMILES	activity change, positive = activation
CCOC(=O)Cn1c(=O)n(CC2CCCO2)c2nc(-c3c(F)cccc3Cl)nc(C(N)=O)c21 (stereo not given)	inactive: -13.3%
CCc1cccc(NS(=O)(=O)c2cc(-c3cnc(C)o3)ccc2OC)c1	inactive: -20.8%
COc1cc(Cl)c(NC(=O)C(NS(=O)(=O)c2cccs2)C(C)C)c(OC)c1 (stereo not given)	inactive: 7.16%
CCCN(Cc1cccs1)C(=O)Nc1ccc(F)c(Cl)c1	inactive: 3.03%
COc1ccc(OC)c(Nc2c3c(nc4ccccc24)CCC3)c1	inactive: -39.6%
CCc1ccc(NC(=O)c2ccc(F)c(S(=O)(=O)NCCc3ccc(OC)c(OC)c3)c2)cc1	inactive: -27.7%
C[C@H]1O[C@H](O[C@H]2[C@H](O)[C@@H](O)[C@@H](O[C@H]3[C@H](O)[C@@H](O)C(O)O[C@H]3CO)O[C@H]2CO)[C@H](O)[C@@H](O)[C@H]1N[C@H]1C=C(CO)[C@@H](O)[C@H](O)[C@@H]1O (stereo not given in full)	inactive: 0.075%
CS(=O)(=O)N1CCc2cc(C(=O)Nc3ccc(S(N)(=O)=O)cc3)ccc21	inactive: 0.317%
COc1cccc(Nc2sc(C(=O)c3ccc(Cl)cc3)c(N)c2C(=O)NCCc2ccc(OC)c(OC)c2)c1	inactive: -11.2%
CC(=O)c1ccc2c(c1)N(CCCN1CCC(CCO)CC1)c1ccccc1S2	inactive: -16.5%
Cc1cccc(C(=O)OCc2cc(=O)n3nc(-c4cccs4)sc3n2)c1	inactive: 1.48%
CCCSc1nnc2n(-c3cccc(C)c3)c(=O)c3c4c(sc3n12)CCCC4	inactive: -5.13%
Cc1ccc(C)c(NC(=O)Cn2c(=O)n(Cc3ccc4c(c3)OCO4)c(=O)c3ccccc32)c1	inactive: -16.3%
Cc1ccc(-n2ncc(C(=O)NCCCN3CCN(C)CC3)c2C2CCN(C(=O)OC(C)(C)C)CC2)c(C)c1	inactive: 15.5%
CC(C)(C)OC(=O)N1CCC(c2c(C(=O)N3CCCCC3)cnn2-c2ccc(F)cc2F)CC1	inactive: -10.1%
Cn1c(Oc2ccccc2)nc2c1c(=O)n(Cc1ccc(Cl)cc1Cl)c(=O)n2C	inactive: -30%
O=C(Cc1ccc(Cl)cc1)Nc1ccc2nn(-c3ccccc3)nc2c1	inactive: 19.5%
Cc1ccccc1C(c1c(C)n(C)n(-c2ccccc2)c1=O)c1c(C)n(C)n(-c2ccccc2)c1=O	inactive: -9.49%
CCC1CN(C(=O)N2CCC(C(=O)NCc3ccco3)CC2)c2ccccc2O1 (stereo not given)	inactive: -12.4%
Cc1ccc(-n2c(SCC(=O)Nc3c(C)cccc3C)nc(O)c(C)c2=O)cc1	inactive: -16.2%
COCCNC(=O)C(=O)NCC(c1cccnc1)N1CCN(c2ccccc2)CC1 (stereo not given)	inactive: -10.2%
CCOc1ccc2c(c1)c(=O)c(C(=O)c1ccc(C)cc1)cn2Cc1ccccc1OC	inactive: -39.9%
CO[C@@]1(NC(=O)Cc2cccs2)C(=O)N2C(C(=O)O)=C(COC(N)=O)CS[C@@H]21	inactive: 0.521%

SMILES	activity change, positive = activation
CCOc1ccccc1NC(=O)CN1C(=O)C2(SCC(=O)N2c2ccc(C)cc2)c2ccccc21 (stereo not given)	inactive: -24.3%
CC(C)c1ccc(NC(=O)Cn2c(=O)n(Cc3nc(-c4ccccc4)no3)c(=O)c3cc4c(cc32)OCO4)cc1	inactive: -5.44%
CC(=O)c1cccc(NC(=O)N2CCC(CN3CCCCC3)CC2)c1	inactive: -14.8%
N#CC(=Cc1ccc(O)c(O)c1)C(=O)NCc1ccccc1	inactive: 13.6%
CCS(=O)(=O)c1ncc(Cl)c(C(=O)N(Cc2ccccc2)c2ccc(OC)cc2)n1	inactive: -94.2%
Cc1ccc(-n2ncc3c(=O)n(Cc4ccccc4C)cnc32)cc1C	inactive: -11.7%
Cc1cc(C)c(CN2C(=O)c3ccccc3S(=O)(=O)c3ccc(C(=O)OCC4CCCO4)cc32)c(C)c1 (stereo not given)	inactive: -29.6%
Cc1ccc2c(c1)C(c1ccc(F)cc1)N(C(=O)c1cccc(C(F)(F)F)c1)CC(=O)N2 (stereo not given)	inactive: -30.1%
Cc1ccc(-n2nnnc2CNC(=O)c2ccccc2C)cc1C	inactive: -8.77%
COc1cccc(N2CCN(Cc3cc(=O)oc4cc(C)ccc34)CC2)c1	inactive: -14.9%
CC(C)OCCCN1C(=O)c2[nH]nc(-c3ccccc3O)c2C1c1cccc(OCc2ccccc2)c1 (stereo not given)	inactive: -44.1%
N#Cc1cccc(NC(=O)CCNS(=O)(=O)c2ccc3c(c2)CCN3C(=O)C2CC2)c1	inactive: -13%
CCOC(=O)c1c(C)[nH]c(CCC(=O)NCCCN2CCN(c3ccccc3F)CC2)c1C	inactive: -13.4%
O=C(Nc1nnc(S(=O)(=O)N2CCc3ccccc32)s1)c1ccccc1Cl	inactive: -15.8%
Cc1c2cnn(CC(=O)N3CCN(c4ccc(F)cc4)CC3)c(=O)c2c(C)n1Cc1ccccc1F	inactive: -26.1%
CC1(COc2ccc3c(c2)ncn3-c2ccc3cccc(N4CCC(N)CC4)c3n2)COC1	inactive: -50.6%
Cc1cc(C)cc(-n2ccnc2SCC(=O)Nc2nc3ccc(C)cc3s2)c1	inactive: -8.19%
CN(C)c1ccc(CNC(=O)Cn2ccc3cc(S(=O)(=O)N4CCCCCC4)ccc32)cc1	inactive: -14.2%
COc1ccc(-c2nc(Cn3c(=O)cc(C)c4c(C)nn(-c5ccccc5)c43)c(C)o2)c(OC)c1	inactive: -15.2%
O=C(CCn1cnc2onc(-c3ccc(F)cc3)c2c1=O)N1CCN(c2ccccc2F)CC1	inactive: -8.44%
Cc1ccc2c(CC(=O)N(Cc3cccc(Cl)c3)C3CCS(=O)(=O)C3)coc2c1 (stereo not given)	inactive: -5.27%
CNS(=O)(=O)c1cn(CC(=O)N2CCN(c3ccccc3OC)CC2)cc1S(=O)(=O)NC	inactive: -9.18%
COC(=O)c1ccccc1NC(=O)Cn1c(=O)cc(C)c2c(C)nn(-c3cccc(Cl)c3C)c21	inactive: 10.4%

SMILES	activity change, positive = activation
COc1ccc(Cl)cc1NC(=O)Cn1cnc2sc(C)c(S(=O)(=O)N3CCN(c4ccccc4OC)CC3)c2c1=O	inactive: 14.9%
O=C(CC1Nc2cccc3cccc(c23)NC1=O)Nc1ccc(F)cc1 (stereo not given)	inactive: -23.7%
CCc1ccc2occ(CC(=O)Nc3c(C(=O)Nc4ccc(Cl)cc4)oc4ccccc34)c2c1	inactive: -0.242%
Cc1ccc(CNC(=O)C(=O)NCC(c2cccs2)S(=O)(=O)c2cccs2)cc1 (stereo not given)	inactive: -18.2%
CC(C)(C)OC(=O)N1CCC(c2c(C(=O)Nc3ccc4c(c3)OCO4)cnn2-c2ccc(F)cc2F)CC1	inactive: 4.87%
Cc1cc(-c2ccc(C)c(S(=O)(=O)N(Cc3cccs3)C(C)C)c2)on1	inactive: -50.8%
CCSc1nc2c([nH]c3ccccc32)c(=O)n1-c1ccc(OC)cc1	inactive: -9.05%
O=C(O)CCCC(=O)N1CCc2cc(S(=O)(=O)NCc3ccccc3)ccc21	inactive: -3.02%
Cc1cccc(NC(=O)CCNS(=O)(=O)c2ccc3c(c2)CCCC(=O)N3)c1C	inactive: -8.73%
CCOC(=O)c1[nH]c2c(c1Cc1ccccc1)C(=O)CC(c1ccc(OC)cc1)C2 (stereo not given)	inactive: -25.6%
CN(C)c1ccc(NC(=O)Cn2c(SCc3ccc(F)cc3)nc3cccnc32)cc1	inactive: -19%
Cc1ccccc1Cn1c(=O)n(CCCCC(=O)NCCc2ccccc2)c(=O)c2ccccc21	inactive: -9.5%
CCc1ccc(NC(=O)CSC2=Nc3ccccc3C3=NC(CC(=O)NCc4ccc5c(c4)OCO5)C(=O)N23)cc1 (stereo not given)	inactive: -6.65%
c1coc(-c2nc3ccccn3c2Nc2ccc3c(c2)OCCO3)c1	inactive: 9.59%
CCOc1ccc(NC(=O)CCS(=O)(=O)c2ccc3nc(C)sc3c2)cc1	inactive: -7.14%
Cc1ccc(Cn2c(SCc3ccc(C(=O)NCCc4ccccc4)cc3)nc3ccncc32)cc1	inactive: -10.7%
COc1ccc(-n2c(=O)c3sc4ccccc4c3n(CC(=O)N3CCCC3)c2=O)cc1	inactive: -2.04%
Cc1nc(-c2ccc(C)c(N3CCN(C(=O)Nc4ccc(Br)cc4)CC3)c2)no1	inactive: -37.7%
CCn1cc(S(=O)(=O)c2cccc(C)c2)c(=O)c2cc(F)c(N3CCCCC3C)cc21 (stereo not given)	inactive: -1.01%
COc1ccc(-n2c(SCC(=O)N3CCCc4ccccc43)nc3c([nH]c4ccccc43)c2=O)cc1	inactive: -13%
COc1ccc(-c2cn3c(n2)sc2cc(C(=O)Nc4ccccc4F)ccc23)cc1	inactive: 18.2%
COc1cc2c(=O)c(S(=O)(=O)c3ccc(C)cc3)cn(Cc3cccc(C)c3)c2cc1OC	inactive: -22.8%
CC1CN(C(=O)N2CCC(C(=O)NCCC3=CCCCC3)CC2)c2ccccc2O1 (stereo not given)	inactive: 3.58%

SMILES	activity change, positive = activation
O=C(CSc1nnc(-c2cccs2)o1)Oc1ccc(Cl)cc1	inactive: -20.2%
CCCCNC(=O)C1CCCN(c2nnc(C)c3c(C)n(-c4ccc(Cl)cc4)nc23)C1 (stereo not given)	inactive: -19.9%
CC(C)c1ccc(S(=O)(=O)Nc2ccc(O)c(Sc3nc4ccccc4s3)c2)cc1	inactive: -28.6%
CSc1cccc(NC(=O)C2CCN(S(=O)(=O)c3ccc4[nH]c(=O)ccc4c3)CC2)c1	inactive: -19.7%
CCOC(=O)C1(C)C=C(Nc2ccc(C)cc2)C(=O)N1c1ccccc1 (stereo not given)	inactive: 0.606%
CCN(CC)CCN(C(=O)c1ccc(C(=O)OC)cc1)c1nc2ccc(Cl)cc2s1	inactive: 5.63%
CCCC(=O)Nc1ccc(NC(=O)c2sc3ccccc3c2Cl)cc1	inactive: -35.3%
COCCn1c(SCC(=O)c2ccccc2)nc2cc(C(=O)NC3CCCC3)ccc2c1=O	inactive: -2.82%
COc1ccc(NC(=O)CN(c2cccc(C)c2C)S(=O)(=O)c2ccccc2)cc1OC	inactive: -22.7%
CCOC(=O)CSC1=Nc2ccccc2C2=NC(CCC(=O)NCc3ccccc3)C(=O)N12 (stereo not given)	inactive: 17.2%
COc1ccc(C(=O)N2CCN(C(=O)COc3ccc(Br)cc3)CC2)cc1OC	inactive: -10.1%
Cc1cc2c(cc1C)C(c1cccc(OC(C)C)c1)CC(=O)N2 (stereo not given)	inactive: -33.4%
CCCCN(C)CCCNC(=O)Cn1nc(CC)n2c(cc3sc(C)cc32)c1=O	inactive: 0.345%
Cc1cccc(-c2noc(-c3ccc(NC4CCCC4)c([N+](=O)[O-])c3)n2)c1	inactive: 1.09%
Cc1ccc(OCC(=O)Nc2cccc(C(=O)OCc3cc(=O)n4cc(C)sc4n3)c2)cc1	inactive: -12.3%
O=C(CC1N=C2c3ccccc3N=C(SCc3cccc(Cl)c3)N2C1=O)NC1CCCCC1 (stereo not given)	inactive: 12.1%
COc1cc(OC)c(NC(=O)c2nc(-c3ccncc3)no2)cc1Cl	inactive: 2.33%
COc1ccc(NC(=O)CSc2nnc(-c3nnn(-c4ccc(F)cc4)c3C)o2)cc1	inactive: 5.29%
CCCCCNC(=O)C1CCC(Cn2c(=O)c3sccc3n(CC(=O)N3CCCC3)c2=O)CC1 (stereo not given)	inactive: -6.29%
CCOCN(C(=O)Cn1c(C)nc2ccccc21)c1c(C)cccc1CC	inactive: 2.96%
Cc1ccc(Cl)cc1-n1c(=O)cc(N2CCN(c3ccccc3)CC2)[nH]c1=O	inactive: -15.1%
